Screen size: about 48,000 compounds; about 550 (1.1%) were called active. Inconclusive results (about 4%) are left out. Cut-off read from the data, not from the text of the source: active = potency below about 15 µM; inconclusive = mostly about 16 µM to 33 µM; inactive = weaker than that. The list shows a part of the results. Some results are limits rather than exact numbers.
Potency is the fitted concentration of half-maximal effect.

UniProt P04062, sequence (P04062 whole entry, looked up): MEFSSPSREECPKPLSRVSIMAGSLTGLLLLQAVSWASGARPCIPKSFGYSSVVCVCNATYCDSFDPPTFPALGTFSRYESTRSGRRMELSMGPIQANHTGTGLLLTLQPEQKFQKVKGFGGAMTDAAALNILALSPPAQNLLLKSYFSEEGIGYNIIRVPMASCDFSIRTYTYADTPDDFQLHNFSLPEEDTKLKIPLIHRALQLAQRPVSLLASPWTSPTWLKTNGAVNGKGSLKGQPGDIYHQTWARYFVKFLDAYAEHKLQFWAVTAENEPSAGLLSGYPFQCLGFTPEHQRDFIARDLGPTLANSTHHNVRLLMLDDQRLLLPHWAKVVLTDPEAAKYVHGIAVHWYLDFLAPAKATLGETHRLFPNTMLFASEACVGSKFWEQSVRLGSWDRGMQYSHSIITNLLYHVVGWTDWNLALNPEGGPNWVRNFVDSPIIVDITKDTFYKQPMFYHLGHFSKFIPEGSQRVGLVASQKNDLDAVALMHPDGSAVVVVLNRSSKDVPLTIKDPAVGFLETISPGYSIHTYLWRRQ

The target of the assay is Lysosomal acid glucosylceramidase (Homo sapiens) (UniProt P04062). As to the kind of experiment: Glucocerebrosidase.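 Note: the screen sought inhibitors.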 The note with it: purified enzyme, resorufin glucoside fluorescence (screen aimed at inhibitors), 20 min. Summed up:
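Normal human glucocerebrosidase (0.2 nM final) was assayed with resorufin β-D-glucopyranoside (30 uM final) in 50mM citric acid/KH2PO4, 10mM sodium taurocholate, 0.01% tween-20, pH 5.9. Compounds were titrated; fluorescence (Ex 548, Em 600) read after 20 min at RT.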
On to `CCOC(=O)c1c(NC(=O)CNCC(O)CO)sc(C)c1C` (stereo not given), for which the Potency is inactive: > 76.9 µM. As to `COc1cc(C(=O)NCCCCCC(=O)O)cc(OC)c1OC`, the Potency was inactive: > 76.9 µM.

Take `CN(C)c1nc2c(c(=O)n(C)c(=O)n2C)n1CC(=O)c1cccs1`: the Potency was inactive: > 76.9 µM. Under `CNS(=O)(=O)c1cccc(C(=O)OC2CCCCC2=O)c1` (stereo not given) stands inactive: > 76.9 µM; under `O=S(=O)(NCc1ccncc1)c1ccc(Br)s1`, inactive: > 76.9 µM. `CCCc1cc(N2CCCC(C(=O)NCC)C2)n2ncnc2n1` (stereo not given): the Potency is inactive: > 76.9 µM. `COCCn1nnnc1CN1CCN2CCCC2C1` (stereo not given): the Potency is inactive: > 76.9 µM. As for `CC(C)n1nnnc1SCC(=O)NCc1ccco1`, the Potency was inactive: > 76.9 µM. As for `CCc1[nH]nc2c1C(c1cccnc1)C(C#N)=C(N)O2` (stereo not given), the Potency is inactive: > 76.9 µM. With `Cc1nn(Cc2ccccc2Cl)c(C)c1NC(=O)c1cc(-c2ccc(F)cc2)on1`, the Potency was inactive: > 76.9 µM. As to `Nc1nnc(N2CCCCC2)s1`, the Potency is inactive: > 76.9 µM. Consider `Cc1ccc(C(C)C)c(OCCn2c(=O)oc3ccccc32)c1`, for which the Potency was inactive: > 76.9 µM. With `CCc1ccc2[nH]c(=O)c(CN(Cc3ccc(OC)cc3)Cc3nnnn3CCOC)cc2c1`, the Potency result is “inactive”. The result for `O=C(c1nc2ccccc2s1)N1CCSCC1` reads inactive: > 76.9 µM; that for `O=C(c1cccc(C(F)(F)F)c1)N1CCCCCC1`, inactive: > 76.9 µM. Take `CCCC(=O)CN1C(=O)C2(OCCO2)c2ccccc21`: the Potency was inactive: > 76.9 µM. Turning to `COc1ccc(-c2nnc(SCC(=O)Nc3ccccc3)n2C)cc1`, the Potency is inactive: > 76.9 µM.

In the case of `O=C(CN1C(=O)c2ccccc2S1(=O)=O)NCCSC1CCCCC1`, the Potency is inactive: > 76.9 µM. Under `CCCC(=O)Nc1ccc(Cl)c(NC(=O)c2cccnc2)c1` stands inactive: > 76.9 µM. Under `N=c1oc2ccc3ccccc3c2cc1-c1nnc2n1CCCCC2` stands inactive: > 76.9 µM; under `COCCOC(=O)c1c(C)oc2ccc(OCc3cc(C(=O)OC)oc3C)cc12`, inactive: > 76.9 µM. Regarding `COc1cc(C(=O)NCc2nnc(SCC(=O)N3CCc4ccccc43)o2)cc(OC)c1OC`, the Potency was inactive: > 76.9 µM. Regarding `O=C(Nc1ccc(F)cc1)C1CCN(c2nnnn2-c2ccccc2)CC1`, the Potency was inactive: > 76.9 µM.

As for `CCc1nnc2sc(-c3ccc(NC(=O)c4ccc5c(c4)OCCO5)cc3)nn12`, the Potency was inactive: > 76.9 µM. Consider `Cc1ccc2c(CN3CCN(S(=O)(=O)c4ccc5c(c4)OCCO5)CC3)cc(=O)oc2c1C`, for which the Potency was inactive: > 76.9 µM.

Consider `COc1cc(C(=O)Nc2nnc(CC(=O)N3CCOCC3)s2)cc(OC)c1OC`, for which the Potency was inactive: > 76.9 µM.

Turning to `CCOC(=O)C1=C(C)N=C2SC(C)C(=O)N2C1c1ccc(OC(C)=O)c(OCC)c1` (stereo not given), the Potency was inactive: > 76.9 µM.

Consider `CC1(C)CC(=O)c2c(O)cc(O)cc2O1`, for which the Potency is inactive: > 76.9 µM. As for `Cc1ccc(CNC(=O)c2cccc(-n3cnnn3)c2)cc1`, the Potency is inactive: > 76.9 µM.

Turning to `COc1ccc(CNc2nc3nc(C)c(Cl)c(C)n3n2)cc1OC`, the Potency was inactive: > 76.9 µM. For `COc1cccc(/C=N/n2c(CO)nc3ccccc32)c1OC`, the Potency was inactive: > 76.9 µM.

On to `Cn1c(=O)n(C)c(=O)n(CC(=O)N2CCCCC2)c1=O`, for which the Potency is inactive: > 76.9 µM. On to `CCOC(=O)N1CCN(CC(=O)N2c3ccccc3CC2C)CC1` (stereo not given), for which the Potency was inactive: > 76.9 µM. The result for `CC(=O)NC(C)C(=O)OCC(=O)c1ccc(Cl)s1` (stereo not given) reads inactive: > 76.9 µM. Regarding `Cn1c(=O)c2c(nc(SCC(=O)c3cccs3)n2Cc2ccc(F)cc2)n(C)c1=O`, the Potency is inactive: > 76.9 µM. Regarding `COc1cc(C(=O)COC(=O)Cc2cnc3sccn23)cc(OC)c1OC`, the Potency was inactive: > 76.9 µM.

In the case of `O=C(CSCSCC(=O)Nc1ccc2c(c1)OCO2)Nc1ccc2c(c1)OCO2`, the Potency is inactive: > 76.9 µM. The result for `Cc1nc(N2CCN(Cc3ccccc3)CC2)[nH]c(=O)c1C` reads inactive: > 76.9 µM. The result for `c1ccc2c(-n3cnnn3)cccc2c1` reads inactive: > 76.9 µM; that for `CN(Cc1ccccc1)S(=O)(=O)c1ccc2c(c1)n(C)c(=O)n2C`, inactive: > 76.9 µM; that for `CCC(c1nnnn1CCOC)N1CCN(Cc2ccccc2)CC1` (stereo not given), inactive: > 76.9 µM. On to `O=c1c(-c2ccco2)[n+]([O-])c2ccccc2n1OCc1ccccn1`, for which the Potency was inactive: > 76.9 µM. The result for `CCn1c2ccccc2c2nnc(SCC(=O)NC(CC(C)C)C(=O)OC)nc21` (stereo not given) reads inactive: > 76.9 µM; that for `Cc1nn(Cc2ccc(Cl)cc2Cl)c(C)c1NC(=O)c1nc2n(n1)C(C(F)F)CC(C)N2` (stereo not given), inactive: > 76.9 µM. For the compound `O=C(Cn1cccc1)Nc1ccc(F)cc1F`, the Potency was inactive: > 76.9 µM. On to `CCNC(=O)c1cc2c(=O)n3cccc(C)c3nc2n(Cc2ccc(C)cc2)c1=N`, for which the Potency is inactive: > 76.9 µM.

With `Nc1nnnn1/N=C/C(Br)=C/c1ccccc1`, the Potency was inactive: > 76.9 µM. Under `O=C(c1ccc(Cl)cc1)N1CCCCC(Sc2nnc(-c3ccc4c(c3)OCO4)o2)C1=O` (stereo not given) stands inactive: > 76.9 µM; under `Cc1ccc2c(c1)c1c(n2CC(O)Cn2nc(C)c(Br)c2C)C(=O)CCC1` (stereo not given), inactive: > 76.9 µM; under `CCOC(=O)c1c(NC(=O)CSc2nnc(CNc3ccc(F)cc3)o2)sc(C)c1C`, inactive: > 76.9 µM.

As to `Cc1cnc(C(=O)Nc2ccc3c(c2)CCC3)cn1`, the Potency is inactive: > 76.9 µM. In the case of `CCCS(=O)(=O)N1CCC(C(=O)N2CCOCC2)CC1`, the Potency is inactive: > 76.9 µM. The result for `O=S(=O)(/N=S1/CC=CCN1S(=O)(=O)c1ccccc1)c1ccccc1` (stereo not given) reads inactive: > 76.9 µM. For `Cn1c(CCCCCN)nc2ccccc21`, the Potency was inactive: > 76.9 µM. Take `CCOC(=O)Cn1nnc(-c2ccc(SC)cc2)n1`: the Potency is inactive: > 76.9 µM. Under `Oc1ccccc1C1=Nc2ncnn2C(c2ccccc2)C1` (stereo not given) stands inactive: > 76.9 µM; under `CCn1c(CN2CCCCCC2=O)nnc1SCc1cnc(-c2ccccc2)s1`, inactive: > 76.9 µM. In the case of `C=CCc1ccccc1OCC(O)CNC` (stereo not given), the Potency was inactive: > 76.9 µM. In the case of `c1cnc(-c2nnc3n2CCCCC3)cn1`, the Potency was inactive: > 76.9 µM. In the case of `CCn1c(SCC(=O)c2ccccc2)nc2c(c1=O)SC(C)C2` (stereo not given), the Potency was inactive: > 76.9 µM.
